# The whole screen tested about 220,000 compounds, of which about 16,000 (7.3%) were called active. The shares of active, inactive and inconclusive entries below differ from those in the screen. The call rests on the fitted dose curve; in most records, active means well fitted inhibition curve with a large enough effect (not every such curve was filed as active); inconclusive means small, poorly fitted or top-dose-only effect, or another doubt; inactive means no such curve, though single readings can be large or run the other way. No potency is given beside an inconclusive call; the fits are too rough.
# Target: Aldehyde dehydrogenase 1A1 (Homo sapiens) (UniProt P00352)
# Assay: qHTS Assay for Inhibitors of Aldehyde Dehydrogenase 1 (ALDH1A1);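 on activity, negative = inhibition: plate controls were no enzyme wells and a reference inhibitor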
# Conditions: Purified ALDH1A1, NADH fluorescence, propionaldehyde substrate; series mostly up to 75.3 µM; activity, negative = inhibition: at the top concentration
# Potency means the concentration at half of the fitted maximal effect; tags describe the fitted curve by direction and shape.
# UniProt P00352, sequence (P00352 whole entry, looked up): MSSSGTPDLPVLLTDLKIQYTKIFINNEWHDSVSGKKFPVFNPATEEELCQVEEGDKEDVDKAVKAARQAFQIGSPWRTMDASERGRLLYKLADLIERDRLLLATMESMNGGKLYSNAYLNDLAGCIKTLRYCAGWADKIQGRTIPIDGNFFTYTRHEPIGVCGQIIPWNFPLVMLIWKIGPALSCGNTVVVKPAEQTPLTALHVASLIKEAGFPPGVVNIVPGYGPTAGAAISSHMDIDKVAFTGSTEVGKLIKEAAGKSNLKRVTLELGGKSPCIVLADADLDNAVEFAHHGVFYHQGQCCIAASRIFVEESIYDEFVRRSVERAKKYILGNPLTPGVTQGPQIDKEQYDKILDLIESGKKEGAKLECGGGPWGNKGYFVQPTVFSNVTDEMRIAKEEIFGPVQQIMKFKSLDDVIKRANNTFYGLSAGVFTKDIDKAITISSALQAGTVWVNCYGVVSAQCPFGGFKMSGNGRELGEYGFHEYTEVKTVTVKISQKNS
Structure (SMILES),Potency,"activity, negative = inhibition"
COC(CN(C(=O)CCl)C(C(=O)NC1CCCCC1)c1ccc(C)cc1)OC (stereo not given),"inconclusive [inhibitor, partial curve, poor fit]",–
COc1ccc(S(=O)(=O)N(CCc2ccccc2)CC(=O)N/N=C/c2ccc3c(c2)OCO3)cc1,"inconclusive [inhibitor, full curve]",–
Cc1ccc(NC(=O)c2cc(NC(=O)CCCC(=O)O)ccc2Cl)cc1Cl,–,inactive: -10.2%
O=C(Nc1ccc(F)c(Cl)c1)Nc1cnccn1,–,inactive: -1.11%
Cc1ccc(S(=O)(=O)Cc2c(C)noc2C)cc1,–,inactive: 2.89%
CSc1ccccc1NC(=S)N/N=C/c1cccn1Cc1cccc(C)c1,–,inactive: 8.88%
COc1cc2c(cc1OC)-c1cc(NC3CCCCCC3)nc(=O)n1CC2,"inconclusive [inhibitor, partial curve]",–
CCOC(=O)c1c(NC(=O)c2nn(CC)cc2Br)c(C#N)cn1-c1ccccc1,"inconclusive [inhibitor, single point]",–
NC(=O)COC(=O)c1ccc(Cl)c(S(=O)(=O)N(Cc2ccccc2)c2ccc(Cl)cc2)c1,"inconclusive [inhibitor, single point]",–
CC(c1ccco1)N(C(=O)c1ccccc1NS(=O)(=O)c1cccc([N+](=O)[O-])c1)c1ccccn1 (stereo not given),"inconclusive [inhibitor, single point]",–
Cc1csc(NC(=O)CSc2nnc(-c3ccc(S(=O)(=O)N4CCCC4)cc3)o2)n1,–,inactive: 7.97%
CCOc1cc(/C=N/N2C(=O)NC3(CCCCC3)C2=O)cc(Br)c1O,active: 15 µM,–
O=C(NN=C1CCCCC1)NC1CCCCC1,"inconclusive [inhibitor, partial curve]",–
COc1ccc(C(=O)Nc2cccc3c2C(=O)NC3=O)cc1S(=O)(=O)N1CCOCC1,"inconclusive [inhibitor, partial curve]",–
COC(=O)c1cc(NC(=O)CC2C(=O)NCCN2C(=O)c2ccccc2)cc(C(=O)OC)c1 (stereo not given),"inconclusive [inhibitor, partial curve]",–
O=C(CSc1ccncc1)Nc1ccc2ccccc2c1,"inconclusive [inhibitor, single point]",–
CC(C)C[C@H](NC(=O)OC(C)(C)C)C(=O)N1CCC(C(=O)N[C@@H](Cc2ccccc2)C(=O)O)CC1,–,inactive: 6.11%
COc1ccccc1N(C)S(=O)(=O)c1ccc(C(=O)OCC(=O)N(C)c2ccccc2)cc1,active: 31.6 µM,–
COc1ccc2[nH]c(=O)c(COC(=O)c3ccco3)cc2c1,"inconclusive [inhibitor, single point]",–
O=C(NCCN1C(=O)S/C(=C\c2ccc(OC(F)F)cc2)C1=O)[C@@H]1CCCN1C(=O)c1cccs1,"inconclusive [inhibitor, single point]",–
COc1cccc(/C=N/n2c(-c3ccco3)nc3ccccc3c2=O)c1,"inconclusive [inhibitor, single point]",–
Cn1c(=O)c2c(SCc3ccccn3)nc(CC(C)(C)C)nc2n(C)c1=O,"inconclusive [inhibitor, partial curve]",–
NC(=O)/C=C/C(=O)Nc1ccc(Cl)cc1,active: 2.24 µM,–
Cc1ccc2nc(N/C(=N/S(=O)(=O)c3ccc(F)cc3)c3ccccc3)sc2c1,"inconclusive [inhibitor, single point]",–

Structure (SMILES),Potency,"activity, negative = inhibition"
CN(Cc1ccccc1)C(=O)c1cc2ccccc2o1,"inconclusive [inhibitor, partial curve]",–
CCOc1ccc(S(=O)(=O)Nc2ccccn2)c2ccccc12,"inconclusive [inhibitor, single point]",–
C=CCNC(=O)C1CC(=O)N(c2ccc(OCC(=O)Nc3ccc(OC)cc3)cc2)C1 (stereo not given),"inconclusive [inhibitor, single point]",–
CCc1c(C)c2cc(Cl)c(O)c(CN3CCCCC3)c2oc1=O,"inconclusive [inhibitor, partial curve]",–
COc1ccc(C(=O)NCc2nnc(SCC(=O)Nc3cccc(F)c3)o2)cc1,active: 9.46 µM,–
CC1=C(c2ccc(F)cc2)[N+](=O)C(C)(C)N1[O-],"inconclusive [inhibitor, single point]",–
C=CCOc1c(Cl)cc(CNc2nccs2)cc1OC,active: 12.6 µM,–
Cc1cccc(C(=O)N2CCN=C2SCc2ccc([N+](=O)[O-])cc2)c1,"inconclusive [inhibitor, single point]",–
CC1CCN(c2ccc(/C=N/n3nnnc3N)cc2[N+](=O)[O-])CC1,"inconclusive [inhibitor, full curve]",–
COc1ccc(CCN=CC2=C(O)CC(C)(C)CC2=O)cc1,"inconclusive [inhibitor, partial curve]",–
C=CCNC(=S)NNc1nc(Nc2ccccc2)nc(N2CCCCC2)n1,active: 15.8 µM,–
CC(=O)Nc1ccc(/C(C)=N\NC(=O)c2ccc(-c3ccccc3)cc2)cc1,active: 22.4 µM,–
CC(C)CN1C(=O)C(=O)N(CC(=O)N2CCC(Cc3ccccc3)CC2)C1=O,"inconclusive [inhibitor, partial curve]",–
O=C(NCCc1ccccc1)c1cc(=O)[nH]c2ccccc12,"inconclusive [inhibitor, single point]",–
CC(C)CCNC(=O)C1CCCN1C(=O)NC1CCCCC1 (stereo not given),–,inactive: 10.3%
O=[N+]([O-])c1cccc(/C=N\N=C2c3ccccc3-c3ccccc32)c1O,–,inactive: -7.38%
C=CCn1c(=NC(=O)C2CCCCC2)sc2cc(NC(C)=O)ccc21,"inconclusive [inhibitor, partial curve]",–
COc1cccc(NC(=S)N(CCCN2CCC(C)CC2)Cc2cccs2)c1,–,inactive: -2.56%
O=C(O)CC(NC(=O)c1cccc([N+](=O)[O-])c1)c1ccc2c(c1)OCO2 (stereo not given),–,inactive: 9.75%
CCOC(=O)C1=C(C)N(Cc2ccccc2)C(=O)NC1c1ccc(OC)cc1 (stereo not given),"inconclusive [inhibitor, single point]",–
O=C(C1CCC1)N1CCc2cc(S(=O)(=O)NCCN3CCN(c4ccccc4F)CC3)ccc21,"inconclusive [inhibitor, single point]",–
O=C(Nc1ccccc1)Nc1ncc([N+](=O)[O-])s1,"inconclusive [inhibitor, single point]",–
Nc1nc(-c2ccc3c(c2)CCC(=O)N3)cs1,"inconclusive [inhibitor, single point]",–
CC(C)CNC(=S)NC1CC2CCC(C1)N2Cc1ccccc1 (stereo not given),"inconclusive [inhibitor, single point]",–

Structure (SMILES),Potency,"activity, negative = inhibition"
CC(=O)C(Sc1nnnn1-c1ccccc1)C(C)=O,"inconclusive [inhibitor, single point]",–
CCOCCCn1c(=NC(C)=O)c(C(=O)OCC)cc2c(=O)n3ccccc3nc21,"inconclusive [inhibitor, partial curve]",–
c1ccc(-n2ncc3c(NCc4cccnc4)ncnc32)cc1,"inconclusive [inhibitor, single point]",–
CCN(CC)CCCNC(=S)N(Cc1cccnc1)Cc1cc2cccc(C)c2[nH]c1=O,"inconclusive [inhibitor, single point]",–
COCCN1C(=O)c2oc3c(C)cc(C)cc3c(=O)c2C1c1cccc(O)c1 (stereo not given),"inconclusive [inhibitor, single point]",–
Fc1ccc(-c2cc(C(F)(F)F)nc(NCc3cccs3)n2)cc1,"inconclusive [inhibitor, single point]",–
Cc1ccc(C(C)(C)C)cc1S(=O)(=O)NC(=O)c1ccccc1,–,inactive: 5.96%
O=C(CCNC(=O)c1ccccc1Cl)OCC(=O)c1ccccc1,"inconclusive [inhibitor, single point]",–
CCN(CC)S(=O)(=O)c1ccc(OC)c(NC(=O)C(C)Oc2ccc3c(C)cc(=O)oc3c2)c1 (stereo not given),"inconclusive [inhibitor, single point]",–
COC(=O)c1ccc(OCC(=O)c2ccccc2OC)cc1,–,inactive: -3.01%
CCOC(=O)C1=C(C)NC(C)=C(C(=O)OCC)C1C(=O)OC1CCOC1=O (stereo not given),"inconclusive [inhibitor, single point]",–
COc1ccc(-n2c(SCC3CNC(=O)O3)nnc2-c2ccc(Cl)cc2)cc1 (stereo not given),active: 8.91 µM,–
Cc1ccc2[nH]c(=O)c(N3CCOCC3)c(-c3ccccc3)c2c1,"inconclusive [inhibitor, single point]",–
Cc1ccc(S(=O)(=O)CNC(=S)c2cccc(C)c2)cc1,"inconclusive [inhibitor, single point]",–
Cc1ccc(NC(=O)/C=C/c2ccc([N+](=O)[O-])s2)cc1,–,inactive: -2.69%
CCn1c(=O)cc(SCC(=O)Nc2ccc3c(c2)OCCO3)c2ccccc21,"inconclusive [inhibitor, partial curve]",–
CC1(C)CSC(=NCc2ccccc2)N1C(=O)c1cccc([N+](=O)[O-])c1,"inconclusive [inhibitor, single point]",–
CCOC(=O)Nc1ccc(=O)n(Cc2c(Cl)cccc2Cl)c1,"inconclusive [inhibitor, partial curve]",–
COc1cccc(-c2noc(-c3ccc(Br)o3)n2)c1,–,inactive: 6.78%
CC(C)Oc1ccc(CC(=O)NNC(=S)Nc2ccc(Br)cc2)cc1,active: 10 µM,–
COc1ccccc1CN(C)CC(=O)NC1CCCc2ccccc21 (stereo not given),–,inactive: 10.7%
CCOC(=O)c1ccc2nc(C(F)(F)F)[nH]c(=O)c2c1,"inconclusive [inhibitor, single point]",–

# Reference: PubChem BioAssay AID1030 (National Center for Advancing Translational Sciences (NCATS), 2008)
